Source: article PMC12136788
The list shows a part of the results.

T1: UNK ZnF1-3 (human, UniProt Q9C0B0 31-174)
T1 sequence: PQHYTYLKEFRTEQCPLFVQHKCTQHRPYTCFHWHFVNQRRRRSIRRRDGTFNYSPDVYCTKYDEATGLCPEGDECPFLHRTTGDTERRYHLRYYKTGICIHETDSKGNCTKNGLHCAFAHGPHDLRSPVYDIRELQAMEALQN

B1: chr2:219093530:219093531:+_ENSG00000163466_ENST00000315717|hu_hu|FALSE|FALSE (ssRNA)
RNA: GGGAGUUCUACAGUCCGACGAUCCACCCUCUUUAAUAACUCAUCAGCACCAUGUGCCUGAAGUUCCUUGUAGAAUUUCAAAGAAAUACUGACCAUCACUUUUGUUUUGUCUCCAUUAGGAUUUGAAAUAUGAUAGAGGACCCCCAACAGAGGAUUGAGCAUCA
B2: chr1:58468927:58468928:-_ENSMUSG00000026034_ENSMUST00000148330|mus_mus|mus_mus_mus_hu_False|78_78 (ssRNA)
RNA: GGGAGUUCUACAGUCCGACGAUCAAUUACUGAAAAAGAUGUUCAUUACCUUAGCUAGGCCAUGUAUGAACCAAAUUACCCAAACAAAAUAAACAUGGCAAUAUAAAAAUGUUAAGAAUUUACAAAGCUGUACAAAAUAACUUACAACAGAGGAUUGAGCAUCA
B3: chr22:19452774:19452775:-_ENSG00000070010_ENST00000399523|hu_hu|hu_hu_hu_mus_False|48_98 (ssRNA)
RNA: GGGAGUUCUACAGUCCGACGAUCCUUCUCAUUGUAGUUGAUGGCAAUCACAUCUCCAGUCGUCAGACAGGCGAAGUUUCUCAAUGCGUUUUCUAAUACCGCUUUAGGGUUGGUAAUAUCCAGGAAGUCUGGGCUCUGAGGCUGCAACAGAGGAUUGAGCAUCA
B4: chr7:106494041:106494042:-_ENSMUSG00000070436_ENSMUST00000094154|mus_mus|motif|central (ssRNA)
RNA: GGGAGUUCUACAGUCCGACGAUCUUCUCGUUUUGAAAGCAACAAAGGCUCAUAUUUCCCUUCCCCCCAUCUUUGAAAAAACGGAAAAAGGGAGAAAAACAAAAGUUCAUGACUGUGAUGCCCAACAUAACAAUUCUAGGGCAGCAACAGAGGAUUGAGCAUCA
B5: 24909737_24909857_1513_CDS_ENSG00000107863_ENST00000396432|human|control|control (ssRNA)
RNA: GGGAGUUCUACAGUCCGACGAUCUCUGCUGCUUGAGAUUCCAUCAGAAUGUCCACUGUAAUUUCCAGACUUAAGUAAAAUUCCAGAAGGUUCCAGUGAUCUGGAGCCUGCAGGCUGAUGAAUUAGAUGAGUGGUGGGAAUUGACAACAGAGGAUUGAGCAUCA
B6: chr1:169100823:169100824:+_ENSG00000143153_ENST00000367816|hu_mus|FALSE|FALSE (ssRNA)
RNA: GGGAGUUCUACAGUCCGACGAUCGACAGUUUGUUCAAGACUAGUAGGUUUGUGUAUCUUUUUUUAACUUAUUAAAUGGCUAGUGGGAAAGAUUUGUGCUUGUGAUCAGCUCUUAAUUUCAAUUUUUACAUCAAAGCGUCCCUGCAACAGAGGAUUGAGCAUCA
B7: chr19:21355511:21355512:+_ENSMUSG00000024750_ENSMUST00000025659|mus_mus|motif|central (ssRNA)
RNA: GGGAGUUCUACAGUCCGACGAUCUUUGUAGCUUUCUUCCUGCUUCCAAAAGUCAUGUCGAAAUUAAGGUGAAGUUUGACGGUGGUAGUAGACUGCCAGUCCUUUUCUGGUGUACCAUUUUUUUUUUUUUAAGUACAGGCACAUCAACAGAGGAUUGAGCAUCA
B8: chr7:150710151:150710152:-_ENSMUSG00000059119_ENSMUST00000072727|mus_hu|motif|central (ssRNA)
RNA: GGGAGUUCUACAGUCCGACGAUCCACAGCCCGCGGGACUAUCCGCUCACGGAAAAAGUGUCCAAUUUCAAAAUCAGAGGCGGAUGUGAAUUCAGAAUCUUCAUCCAGUGAUUCUCCAUCCCCGGAUGCUUUCAAUGGAUUGAACAACAGAGGAUUGAGCAUCA
B9: chr11:102337468:102337469:-_ENSMUSG00000034621_ENSMUST00000143842|mus_mus|motif|central (ssRNA)
RNA: GGGAGUUCUACAGUCCGACGAUCAAGGAAAACUACCUCCAGGAUGGCAGAGGCGGCCAGAGCAUGGCUAGAUCUACAACCGGACGAGAAGCAGCACAAAAAUGUUAAUACUGUUUUAUUUAAAUAUUUACACGGGCUGAAAGCCAACAGAGGAUUGAGCAUCA
B10: chr8:104063288:104063289:+_ENSG00000155097_ENST00000518738|hu_hu|motif|central (ssRNA)
RNA: GGGAGUUCUACAGUCCGACGAUCUAUAUAAGUAACCAAGUCCACUCCAUUAGCCAACAGAUUCUCUUGAACUUUGUCUUUGCGGUCUUCCAAUACAUCAGCCAUGUAUUGAGCUACUUUCUUAACCACUCCUUCUACAAAUGCCAACAGAGGAUUGAGCAUCA
B11: chr6:114281168:114281169:-_ENSG00000196591_ENST00000368632|hu_hu|hu_hu_hu_mus_True|8_68 (ssRNA)
RNA: GGGAGUUCUACAGUCCGACGAUCUUCCAUUUUUCGGUAUAAACCAUAAUUUAGCAGCAAGUUAUGAGUCAUGCGGAUUCUAUGAGGCUUCAUGGGAUGACCCUGGCCAUAAUAAUAAUUGCCAAUAUCACAGAUUCAGUAGUACAACAGAGGAUUGAGCAUCA
B12: chr22:32879901:32879902:+_ENSG00000100225_ENST00000397426|hu_mus|hu_hu_hu_mus_False|8_48 (ssRNA)
RNA: GGGAGUUCUACAGUCCGACGAUCCUCUUCCAUACUCAUGGCAUCCUGAAUUGACUCAGCUUCAACAUUUUGACUAGGCCCUUCCAUACUGUCGUCAGUCCAGGCAUCAAAUGGGGUGGCCUGUCCUUGGAAUGAAUCAGUCCCCAACAGAGGAUUGAGCAUCA
B13: chr3:107766082:107766083:-_ENSG00000196776_ENST00000355354|hu_mus|FALSE|FALSE (ssRNA)
RNA: GGGAGUUCUACAGUCCGACGAUCCUUCCAGCUGUGAGUCGUGAAGACCUGGUGCUUAGACAACUGUAUUCUUCCAUUUCUGACUUCCAAGUUACAGUCCGUCACUUCCCUUCACCUAUUCCUAGGAGGUUGGAUAGUCCUCUGCAACAGAGGAUUGAGCAUCA
B14: chr1:100342015:100342016:+_ENSG00000162688_ENST00000361915|hu_mus|motif|central (ssRNA)
RNA: GGGAGUUCUACAGUCCGACGAUCGGCUUCCUCUGCGGAUAAGGCCAUUUCUCCAAAGGGGAAAGUAAAAUACCUGGUAACGGAAGGAUACUUCCUGGUGACAGGUCCUAGUUUAGGGCCAUGGCCUGCCAGUCGUUCAUAAAACAACAGAGGAUUGAGCAUCA

Molecular target: T1, UNK ZnF1-3
Experiment: nsRBNS (natural sequence RNA bind-n-seq); RBNS binding buffer (assumed for nsRBNS): 25 mM Tris pH 7.5, 150 mM KCl, 3 mM MgCl2, 0.01% Triton X-100, 500 ug/ml BSA, 20 U/ml SUPERase-In, 4 C; UNK is unkempt and MSI1 is Musashi-1; names of the RNAs are library labels; protein concentration not given here; high values mean tight binding

Binder	binding signal [enrichment R]
B1	1.46
B2	1.24
B3	0.786
B4	1.22
B5	1.3
B6	1.14
B7	0.527
B8	0.87
B9	2.94
B10	1.03
B11	1.26
B12	0.95
B13	0.792
B14	0.704
